Reference: PubChem BioAssay AID1030 (National Center for Advancing Translational Sciences (NCATS), 2008)
In all, about 220,000 compounds went through this assay and about 16,000 (7.3%) were called active. Inconclusive results, whose numbers are uncertain, are shown with a selection of clear calls. The call rests on the fitted dose curve; in most records, active means well fitted inhibition curve with a large enough effect (not every such curve was filed as active); inconclusive means small, poorly fitted or top-dose-only effect, or another doubt; inactive means no such curve, though single readings can be large or run the other way. No potency is given beside an inconclusive call; the fits are too rough.

target: Aldehyde dehydrogenase 1A1 (Homo sapiens) (UniProt P00352); test: qHTS Assay for Inhibitors of Aldehyde Dehydrogenase 1 (ALDH1A1); conditions: Purified ALDH1A1, NADH fluorescence, propionaldehyde substrate; series mostly up to 75.3 µM;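 on activity, negative = inhibition: plate controls were no enzyme wells and a reference inhibitor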
Potency means the concentration at half of the fitted maximal effect; tags describe the fitted curve by direction and shape.

UniProt P00352, sequence (P00352 whole entry, looked up): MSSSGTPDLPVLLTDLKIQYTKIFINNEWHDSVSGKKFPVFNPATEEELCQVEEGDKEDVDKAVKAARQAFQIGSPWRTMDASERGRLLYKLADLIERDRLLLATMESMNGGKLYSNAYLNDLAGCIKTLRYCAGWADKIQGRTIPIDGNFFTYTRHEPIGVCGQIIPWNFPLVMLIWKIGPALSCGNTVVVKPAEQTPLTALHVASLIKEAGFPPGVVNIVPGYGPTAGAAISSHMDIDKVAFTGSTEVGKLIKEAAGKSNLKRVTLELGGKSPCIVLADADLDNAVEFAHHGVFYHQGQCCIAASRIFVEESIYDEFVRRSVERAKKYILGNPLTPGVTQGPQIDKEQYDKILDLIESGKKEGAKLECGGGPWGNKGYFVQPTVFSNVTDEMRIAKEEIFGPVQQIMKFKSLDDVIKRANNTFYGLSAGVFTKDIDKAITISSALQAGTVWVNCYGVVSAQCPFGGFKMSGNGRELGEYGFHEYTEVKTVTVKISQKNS

| SMILES | Potency | activity, negative = inhibition |
| --- | --- | --- |
| COc1cc(C(=O)NCCc2ccc3c(c2)OCCO3)ccc1OCC(=O)N1CCOCC1 | active: 22.4 µM | – |
| Cn1c(N/N=C2\CCCc3ccccc32)nc2c1c(=O)n(Cc1ccc(F)cc1)c(=O)n2C | inconclusive [inhibitor, single point] | – |
| Cc1ccc(C(=O)c2oc3nc(C)cc(C)c3c2N)cc1 | inactive | – |
| CCOc1ccccc1NC1c2ccccc2C(=O)N1c1ccc(C)cn1 (stereo not given) | inconclusive [inhibitor, partial curve] | – |
| O=C(Cc1ccccc1Cl)N1CCN(c2ccccn2)CC1 | inconclusive [inhibitor, partial curve] | – |
| CS(=O)(=O)Nc1nc2n(n1)C(c1ccccc1)C=C(c1ccc(Br)cc1)N2 (stereo not given) | inconclusive [inhibitor, partial curve] | – |
| COc1ccc(CN(Cc2cc3ccc(C)cc3[nH]c2=O)Cc2nnnn2C2CCCC2)cc1 | inconclusive [inhibitor, partial curve] | – |
| O=C(CCCC(=O)OCC(Cl)=C(Cl)Cl)Nc1ccccc1F | inconclusive [inhibitor, single point] | – |
| Cc1cc(C)c2[nH]c(=O)c(C(c3nnnn3Cc3ccc4c(c3)OCO4)N3CCCCC3)cc2c1 (stereo not given) | inconclusive [inhibitor, single point] | – |
| COc1ccc(C2=NN(CN3C(=O)C(=O)c4ccccc43)C(c3ccc(C)cc3)C2)cc1 (stereo not given) | active: 0.562 µM | – |
| Cc1nnc(SCC(=O)N(Cc2ccccc2)C(C)(C)C)[nH]c1=O | inconclusive [inhibitor, single point] | – |
| COc1cc(NC(=O)SC2=NCCS2)cc(OC)c1 | inconclusive [inhibitor, single point] | – |
| O=C(N/N=C/c1ccc([N+](=O)[O-])o1)c1cc2c(ccc3ccccc32)o1 | inactive | – |
| COC(=O)c1ccc(OCC2c3cc(OC)c(OC)cc3CCN2C(=O)C2CC2)cc1 (stereo not given) | inconclusive [inhibitor, single point] | – |
| NC(=O)c1nnn(Cc2cc(Cl)c(C(=O)c3ccc(Cl)cc3)c(Cl)c2)c1N | – | inactive: 5.8% [at 13.5 µM] |
| CCOC(=O)C1=NNC(C(=O)c2ccc(C)cc2)C1c1ccc(OC)cc1 (stereo not given) | inconclusive [inhibitor, single point] | – |
| O=S(=O)(c1cccc2nonc12)N1CCN(c2cccc(Cl)c2)CC1 | inconclusive [inhibitor, single point] | – |
| O=C(Cc1ccccc1)NC(=S)Nc1ccc2oc(-c3ccccc3F)nc2c1 | inconclusive [inhibitor, partial curve] | – |
| CCOc1ccccc1C1C2C(=O)N(c3ccccc3)C(=O)C2ON1c1ccccc1 (stereo not given) | active: 22.4 µM | – |
| O=C(CSc1nnc(Cn2nnc3ccccc32)o1)Nc1cccc(Cl)c1 | inconclusive [inhibitor, single point] | – |
| COC(=O)C1(C)C=CC2(CCCCC2)N1C(=O)c1ccccc1 (stereo not given) | inactive | – |
| c1ccc(C2OC3c4cccc5cccc(c45)C3N2c2ccccc2)cc1 (stereo not given) | inconclusive [inhibitor, single point] | – |
| Oc1ccccc1-c1nnc(COc2ccc(Cl)cc2Cl)o1 | inconclusive [inhibitor, single point] | – |

| SMILES | Potency | activity, negative = inhibition |
| --- | --- | --- |
| O=C1NCCCc2nc(Oc3ccccc3)sc21 | inactive | – |
| CC1(C)C2CCC1(CS(=O)(=O)Nc1ccc(S(=O)(=O)NC3CCCCC3)cc1)C(=O)C2 (stereo not given) | inconclusive [inhibitor, single point] | – |
| CS(=O)(=O)N(CC(=O)NCc1ccncc1)c1ccc(Cl)c(Cl)c1 | inconclusive [inhibitor, single point] | – |
| CC(=O)COc1ccc2c3c(c(=O)oc2c1)CCCC3 | inconclusive [inhibitor, partial curve] | – |
| CCCCCOC(=O)c1cc(=O)[nH]c2ccccc12 | inconclusive [inhibitor, single point] | – |
| Fc1ccc(-c2nn(-c3ccccc3)cc2CNCc2ccccc2)cc1 | inconclusive [inhibitor, single point] | – |
| CSc1nc(N)c(C#N)c(-c2ccccc2Cl)c1C#N | active: 14.1 µM | – |
| O=c1[nH]c(-c2ccc(F)cc2)nc2c1sc(=S)n2-c1ccccc1 | inconclusive [inhibitor, partial curve] | – |
| O=C(Nc1ccccc1Cl)N1CCN(c2ccc3nnc(-c4ccccc4)n3n2)CC1 | inconclusive [inhibitor, partial curve] | – |
| COc1cccc(Nc2ncc3ncc(=O)n(C[C@H]4CCCO4)c3n2)c1 | inactive | – |
| COc1ccc(NC(C(=O)Nc2cccc(C(C)=O)c2)c2ccccc2)cc1 (stereo not given) | inconclusive [inhibitor, single point] | – |
| Cc1ccc(S(=O)(=O)NCCCCCC(=O)Nc2ccccc2C)cc1 | active: 3.98 µM | – |
| c1ccc(-c2ccccc2-c2nc(-c3ccncc3)no2)cc1 | inconclusive [inhibitor, partial curve] | – |
| O=C(NCc1cccs1)C1CCC(CNS(=O)(=O)c2ccc(Br)s2)CC1 (stereo not given) | active: 2.82 µM | – |
| CN(C)/C=N/C(=S)Nc1ccccc1F | inactive | – |
| CCC1(C)NC(=O)N(CC(=O)Nc2sc3c(c2C(=O)OC)CCCCC3)C1=O (stereo not given) | inconclusive [inhibitor, single point] | – |
| Cn1c(CO)cnc1SCC(=O)c1ccc(Br)cc1 | inconclusive [inhibitor, single point] | – |
| Cc1ccc(CCNC(=O)C2CCC(=O)N2C2CCCC2)cc1 (stereo not given) | inactive | – |
| COc1cccc(CNC(=O)C2CCCN(S(C)(=O)=O)C2)c1 (stereo not given) | inactive | – |
| CCOC(=O)c1csc(-n2nc(C)cc2C(F)(F)F)n1 | inactive | – |
| O=[N+]([O-])c1ccc(/C=N/Nc2nc(N3CCCCCC3)nc(N3CCCCCC3)n2)o1 | inactive | – |
| CCCCn1c(SCC(=O)/C(C#N)=C(\C)N)nc2ccccc2c1=O | inconclusive [inhibitor, partial curve] | – |
